# Source: paper PMC4336329 (PLoS ONE, 2015)
# About 14,000 (4.5%) of roughly 310,000 compounds showed an effect of 50% or more. Effects have a minus sign here. Some of the results follow.
# Molecular target: human ether-à-go-go-related gene (hERG) potassium channel (human, UniProt Q12809)
# Assay: primary screen, population patch clamp on CHO cells stably expressing hERG
# 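Note: peak tail current of the secondary pulse compared with the same well before compound.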
# Chain of human ether-à-go-go-related gene (hERG) potassium channel (Q12809 whole entry, looked up): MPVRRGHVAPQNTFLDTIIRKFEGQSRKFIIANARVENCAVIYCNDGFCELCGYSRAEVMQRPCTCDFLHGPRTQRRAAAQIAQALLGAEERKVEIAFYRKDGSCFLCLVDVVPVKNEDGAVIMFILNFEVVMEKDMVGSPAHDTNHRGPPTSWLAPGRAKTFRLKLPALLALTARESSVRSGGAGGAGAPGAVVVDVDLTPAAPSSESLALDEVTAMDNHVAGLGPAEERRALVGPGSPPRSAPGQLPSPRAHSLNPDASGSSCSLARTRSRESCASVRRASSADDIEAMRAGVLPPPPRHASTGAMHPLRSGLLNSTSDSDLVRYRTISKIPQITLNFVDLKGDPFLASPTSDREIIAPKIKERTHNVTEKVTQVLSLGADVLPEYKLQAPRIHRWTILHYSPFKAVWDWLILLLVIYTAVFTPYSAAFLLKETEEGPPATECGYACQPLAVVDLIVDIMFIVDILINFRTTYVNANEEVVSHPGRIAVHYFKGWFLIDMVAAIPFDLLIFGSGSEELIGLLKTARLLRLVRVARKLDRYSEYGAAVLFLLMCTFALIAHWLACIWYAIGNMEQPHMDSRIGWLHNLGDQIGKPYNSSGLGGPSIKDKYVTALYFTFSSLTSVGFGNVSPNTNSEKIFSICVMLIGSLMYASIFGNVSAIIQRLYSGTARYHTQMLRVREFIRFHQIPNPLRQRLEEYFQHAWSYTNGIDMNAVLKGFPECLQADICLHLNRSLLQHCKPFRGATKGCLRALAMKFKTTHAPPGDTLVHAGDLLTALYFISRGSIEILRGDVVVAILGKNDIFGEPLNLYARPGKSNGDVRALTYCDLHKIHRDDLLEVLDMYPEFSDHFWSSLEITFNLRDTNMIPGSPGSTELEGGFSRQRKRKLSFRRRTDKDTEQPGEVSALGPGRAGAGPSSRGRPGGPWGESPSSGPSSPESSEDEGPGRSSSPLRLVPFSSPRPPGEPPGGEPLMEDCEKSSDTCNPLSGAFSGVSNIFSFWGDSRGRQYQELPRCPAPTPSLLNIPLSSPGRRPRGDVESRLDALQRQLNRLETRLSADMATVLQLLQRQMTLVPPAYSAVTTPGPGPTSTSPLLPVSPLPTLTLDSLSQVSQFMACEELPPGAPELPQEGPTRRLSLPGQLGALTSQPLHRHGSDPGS
row,Structure (SMILES),"hERG current change (%, negative = inhibition) at 10uM"
1,CC(C)(C)c1cc(C(=O)NCCN2CCCC2)cc(C(C)(C)C)c1,4.49%
2,Fc1ccc(C2=Nn3c(nnc3-c3ccco3)SC2)cc1,13%
3,O=[N+]([O-])c1ccccc1S(=O)(=O)c1ccccc1,8.29%
4,COc1cccc(C(=O)Nc2ccc(N3CCN(S(C)(=O)=O)CC3)cc2)c1,24.5%
5,CCc1cccc(C)c1NC(=O)CCCn1c(=O)c2cccn2c2cccnc21,-12.7%
6,CCCCCCCN=C(C)c1ccccc1O,13.5%
7,CC(=O)Nc1cc2c(cc1C(=O)c1ccccc1)OCCO2,-1.86%
8,CC(=O)c1ccc(OC(=O)c2nc(-c3ccccc3)oc2C)cc1,22%
9,O=C(CN1C(=O)C2CC=CCC2C1=O)Nc1nc2ccccc2[nH]1 (stereo not shown),10.4%
10,O=C(NNc1ccccc1[N+](=O)[O-])Nc1ccccc1,1.34%
11,CCN(CC)C(=O)COc1coc(CN2CCN(c3cccc(Cl)c3)CC2)cc1=O,-16.3%
12,O=C(Nc1ccc(Cl)c(S(=O)(=O)N2CCCCC2)c1)c1ccco1,-5.95%
13,Cc1cc(/C=C2/NC(=O)NC2=O)c(C)n1C,12.9%
14,COc1ccccc1N1CCN(C(=O)c2ccc(Cl)c(S(=O)(=O)N3CCOCC3)c2)CC1,-10.9%
15,CCN(CC)S(=O)(=O)c1cccc(N2CC(O)=C(c3ccccc3)C2=N)c1,2.53%
16,O=C(NCCc1nc(-c2ccccc2Cl)no1)C1CCCCC1,-0.163%
17,COc1cc(NC(=O)Cc2ccc([N+](=O)[O-])cc2)c(C(=O)O)cc1OC,-0.778%
18,Cc1cccc(C(=O)NNC(=O)c2ccccc2)c1,17.7%
19,COc1ccc(Cc2nnc(SCC(=O)Nc3ccccc3C#N)o2)cc1,-3.13%
20,C/C(=N\NC(=O)C1CC1)c1ccccc1O,0.248%
21,Cc1ccc2nc(NC(=O)CSc3nnc(C)c(=O)n3N)sc2c1,2.09%
22,CCCCCC(=O)N/N=C(\C)c1ccc(NC(=O)c2ccco2)cc1,5.94%
23,CN1CCN(CCP(=O)(c2ccccc2)c2ccccc2)CC1,4.63%

row,Structure (SMILES),"hERG current change (%, negative = inhibition) at 10uM"
1,Cc1ccc(NC(=O)C2CCCN(S(=O)(=O)c3ccc(-n4cnnn4)cc3)C2)cc1 (stereo not shown),-23.6%
2,O=C1CCCc2c1[nH]c1ccc(Br)cc21,19.2%
3,Cc1ccc(S(=O)(=O)Nc2ccc(-n3cnnn3)cc2)cc1,-1.93%
4,Cc1ccc(-n2c(SCC(=O)Nc3ccc4c5c(cccc35)CC4)nc(O)cc2=O)cc1,14.7%
5,CCc1nnc(NC(=O)C2CCCN2C(=O)NC2CCCCC2)s1 (stereo not shown),10.4%
6,Cc1ccc(C)c(NC(=O)c2ccccc2NS(=O)(=O)c2cc([N+](=O)[O-])ccc2C)c1,9.09%
7,O=C(CC1C(=O)NCCN1Cc1ccc(-c2ccccc2)cc1)NCC1CCOCC1 (stereo not shown),-9.78%
8,CCN=c1scc(C)n1/N=C/c1ccsc1,-12.6%
9,Cc1oc(-c2ccc(Cl)cc2)nc1CN1CCC(C(=O)NCc2ccco2)CC1,-71.2%
10,Cc1cccc(-n2c(Cc3ccccc3)n[nH]c2=S)c1,-0.23%
11,Cc1cc(C)c(S(=O)(=O)Nc2ccc(OCC(=O)O)cc2)c(C)c1,6.93%
12,CNc1nc(-c2ccc3c(c2)CCN3C(=O)CC(C)(C)C)c(C)s1,38%
13,COc1ccc(N2CCN(C(=O)c3oc4c(c3C)C(=O)CCC4)CC2)cc1,6.39%
14,CC1(C)COC(c2coc3ccccc3c2=O)OC1,3.85%
15,Cc1ccc(C(=O)NNC(=O)c2ccncc2)cc1S(=O)(=O)N1CCOCC1,0.578%
16,O=C(NCCCN1CCCC1)Nc1cccc2ccccc12,-12.5%
17,Cc1[nH]n(-c2ccc(Cl)c(Cl)c2)c(=O)c1CCO,10.1%
18,COc1ccc(Nc2cnn(-c3nc4ccccc4s3)c(=O)c2Cl)cc1,-3.58%
19,COc1ccc(C2c3c(oc4ccccc4c3=O)C(=O)N2CC2CCCO2)cc1 (stereo not shown),-9.56%
20,C=CCN1C(=O)C2(C(C(=O)OCC)=C(N)Oc3ccccc32)C2=C1CCCC2=O (stereo not shown),1.85%
21,COc1ccc(CN2CCc3ccccc3C2)cc1Br,14.9%
22,OC(CNCc1ccccc1)c1ccccc1 (stereo not shown),4.68%
23,CC(C)CCN(C)C1CCN(S(=O)(=O)c2ccc(F)cc2)CC1.Cl,-47.7%

row,Structure (SMILES),"hERG current change (%, negative = inhibition) at 10uM"
1,CCn1c(CNC(=O)Cc2ccc(OC)cc2)nnc1SCCOc1ccccc1,-25.9%
2,CC1CCCCC1NC(=O)CCC(=O)N1CCOc2ccc(Cl)cc21 (stereo not shown),-4.33%
3,Cc1ccc(NC(=O)CSc2nnc([C@@H]3CCCN3C(=O)OC(C)(C)C)o2)c(C)c1,4.23%
4,COc1ccc(S(=O)(=O)N(C)C)cc1NC(=O)CN1CCN(C(=O)C2CC2)CC1,-2.94%
5,Cc1cc(C=O)c(C)n1-c1ccc(NC2CCCC2)c([N+](=O)[O-])c1,-13.2%
6,COc1cccc(-c2csc(N3CCN(Cc4ccccc4)CC3)n2)c1,0.166%
7,CCc1ccc(CN(C)C(=O)c2cc(S(=O)(=O)N3CCN(CC)CC3)ccc2Cl)cc1,-25.3%
8,CS/C(=N\S(=O)(=O)c1ccccc1)c1ccccc1,0.781%
9,O=C(Nc1cc(C(F)(F)F)ccc1Cl)C(Sc1cccc[n+]1[O-])c1ccccc1 (stereo not shown),-14.5%
10,CCC(=O)N(Cc1cccs1)C1CCOC(C)(C)C1 (stereo not shown),10.7%
11,COc1ccc(S(=O)(=O)N2CCCCCC2)cc1C(=O)N1CCCC(C(F)(F)F)C1 (stereo not shown),-37.2%
12,CS(=O)(=O)N(CC(=O)Nc1ccccc1C(=O)N1CCOCC1)c1ccc(F)c(Cl)c1,4.45%
13,OC(c1ccccc1)c1nccn1Cc1ccccc1 (stereo not shown),-1.07%
14,CNc1nc(SC)nc2ccccc12,25.2%
15,C=C(C)c1cccc(C(C)(C)NC(=O)Nc2ccc3[nH]c(=O)[nH]c3c2)c1,8.14%
16,O=C(CN1CCOCC1)Nc1ccc(N2CCN(c3ccccc3)CC2)c(F)c1,2.59%
17,Cc1[nH]c(C)c(S(=O)(=O)N2CCN(c3cccc(Cl)c3)CC2)c1C(=O)N1CCCC1,-6.94%
18,O=[N+]([O-])c1ccccc1CN1CCN(S(=O)(=O)Cc2ccccc2)CC1,2.17%
19,Cc1nc(Sc2ccc(Cl)cc2)c(C#N)c(C)c1[N+](=O)[O-],6.1%
20,O=C(CSc1ccccc1F)NC1CCS(=O)(=O)C1 (stereo not shown),23.6%
21,CCOc1cc2c(C#N)c(N3CCCC3)nc(N)c2c(N)n1,3.83%
22,CC(NC(=O)CCSCc1ccccc1F)c1ccccc1 (stereo not shown),5.91%
23,CCOC(=O)N/N=C(C)/C=C/c1ccco1,15%

row,Structure (SMILES),"hERG current change (%, negative = inhibition) at 10uM"
1,Cc1cc(C)n(CCOc2nonc2N)n1,3.25%
2,CCN1CCN(C(=O)CN(C)S(=O)(=O)c2ccc3ccccc3c2)CC1,3.38%
3,CCCCn1c(N)c(N(CCOC)C(=O)CN(C)S(=O)(=O)c2ccc(Cl)cc2)c(=O)[nH]c1=O,22.3%
4,O=C(CNC(=O)c1cccs1)OCC(=O)c1ccccc1,8.55%
5,Cc1cc(C)cc(OC(C)C(=O)Nc2ccccc2C(=O)NCc2cccnc2)c1 (stereo not shown),-5.28%
6,CC(CCc1ccccc1)NC(=O)CN1CCSc2ccccc21 (stereo not shown),15.1%
7,CC(=O)Nc1cccc(NC(=O)C2CCN(C(=O)c3ccco3)CC2)c1,21.8%
8,CSCCNC(C)=O,11.1%
9,C=CCn1c(=O)c2ccccc2n2c(SCC(=O)Nc3sc(C)c(CC)c3C(=O)OCC)nnc12,6.96%
10,COC(=O)c1ccc(COC(=O)c2[nH]c(C)c(C(C)=O)c2C)o1,21.6%
11,CC1(C)C2([N+](=O)[O-])CNCC1([N+](=O)[O-])CNC2,4.33%
12,Cc1nc(-c2ccc(Cl)cc2)sc1C1(C)CC(c2cccc(F)c2)=NO1 (stereo not shown),13.4%
13,O=C(OC(C(=O)NCC1CCCO1)c1ccc(F)cc1)c1cccs1 (stereo not shown),-7.96%
14,Cc1cc(=O)[nH]c(N/N=C/c2ccco2)n1,13.9%
15,O=C(COC(=O)c1n[nH]c2ccccc12)NC(=O)NC12CC3CC(CC(C3)C1)C2,0.441%
16,Cc1cccc(C)c1NC(=O)c1c(C)nn(-c2ccccc2)c1Cl,-17.3%
17,CCOC(=O)C1=C(C)OC(N)=C(C#N)C1c1ccc(C)o1 (stereo not shown),2.2%
18,NS(=O)(=O)c1ccc(CCNS(=O)(=O)c2ccc(Cl)nc2)cc1,9.73%
19,Cc1ccc(O)c(NC(=O)c2cc(-c3ccccc3Cl)on2)c1,20.3%
20,COC(=O)c1c[nH]n2c(=O)c(Cl)c(C)nc12,13.5%
21,O=C(Nc1ccc(Cl)cc1)Nc1ccc(-c2cnco2)cc1,11.1%
22,Cc1ccc(NC(=O)COc2cccnc2[N+](=O)[O-])cc1S(=O)(=O)N1CCCCC1,-1.88%
